# Results reported in PubChem BioAssay (Tox21).
# This list was built around the results that the source calls inconclusive (neither active nor inactive); the mix of calls is not that of the screen. Entries that show only a call come without a potency. For some of these results: Where the call is inconclusive, the potency comes from a doubtful curve fit. Calls of active or inactive are those of the source. Unless noted, calls follow the shape of the dose curve; as a rule, active = well fitted curve in the direction sought with a large enough effect in the repeat runs; inconclusive = weak or mixed curves; inactive = no such curve, though single readings can be large; an effect the other way counts as inactive or inconclusive.
# Columns and labels:
# [1] = biological target: Estrogen receptor (Homo sapiens) (UniProt P03372); assay: qHTS assay to identify small molecule antagonists of the estrogen receptor alpha (ER-alpha) signaling pathway using the BG1 cell line in the presence of 0.1 nM 17-beta-estradiol (AID 1259244); also: nearly all actives have a fitted effect of over 50% in size; also: potency is read from the fitted curve at half-maximal effect
# UniProt P03372, sequence (P03372 whole entry, looked up): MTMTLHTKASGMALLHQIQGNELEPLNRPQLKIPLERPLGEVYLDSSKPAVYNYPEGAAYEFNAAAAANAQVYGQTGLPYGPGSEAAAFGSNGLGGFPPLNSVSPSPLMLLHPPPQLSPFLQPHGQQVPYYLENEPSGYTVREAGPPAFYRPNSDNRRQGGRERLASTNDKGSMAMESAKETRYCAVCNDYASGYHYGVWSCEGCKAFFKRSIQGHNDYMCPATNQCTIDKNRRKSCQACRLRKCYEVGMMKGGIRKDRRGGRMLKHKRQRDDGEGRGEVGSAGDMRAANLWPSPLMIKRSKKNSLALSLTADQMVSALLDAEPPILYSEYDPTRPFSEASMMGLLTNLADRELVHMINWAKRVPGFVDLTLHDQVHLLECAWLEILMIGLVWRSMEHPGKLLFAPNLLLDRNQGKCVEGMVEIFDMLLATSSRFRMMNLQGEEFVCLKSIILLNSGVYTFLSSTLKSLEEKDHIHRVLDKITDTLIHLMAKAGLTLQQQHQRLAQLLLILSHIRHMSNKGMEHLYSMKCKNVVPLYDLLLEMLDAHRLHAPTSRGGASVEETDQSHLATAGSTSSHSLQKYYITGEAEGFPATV
# Method in brief: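 After 5 days in hormone-depleted medium (charcoal-stripped serum, no phenol red), VM7Luc4E2 cells were seeded, incubated 24 h, then co-treated with compound and 0.1 nM (final) estradiol for 22 h before luminescence detection.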
# [2] = system: estrogen-related receptor alpha (ERRalpha) with PGC-1alpha coactivator, human; assay: qHTS assay to identify small molecule antagonists of the estrogen related receptor signaling pathway with the pleiotropic PPARgamma coactivator (PGC) (AID 1224821; calls by dose curve; also: potency is read from the fitted curve at half-maximal effect; nearly all actives have a fitted effect of over 50% in size)
# Method in brief: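 Luminescent read-out (One-Glo, 30 min at room temperature) following 18 h treatment of PGC/ERR cells at 37 C with compounds delivered in DMSO. Cells had settled 6 h at 37 C/5% CO2 before dosing.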
# [3] = biological target: Bile acid receptor (Homo sapiens) (UniProt Q96RI1); assay: qHTS assay to identify small molecule agonists of the farnesoid-X-receptor (FXR) signaling pathway (AID 743220; active = well fitted activation curve with a large enough effect in the signal ratio in the repeat runs, not every such curve was filed as active; inconclusive = weak or mixed curves, or effect the other way; the % refers to the signal ratio); settings: HEK293T FXR-UAS-bla, beta-lactamase FRET ratio, 16 h; activation: at 62.6 µM (top of the series)
# UniProt Q96RI1, sequence (Q96RI1 whole entry, looked up): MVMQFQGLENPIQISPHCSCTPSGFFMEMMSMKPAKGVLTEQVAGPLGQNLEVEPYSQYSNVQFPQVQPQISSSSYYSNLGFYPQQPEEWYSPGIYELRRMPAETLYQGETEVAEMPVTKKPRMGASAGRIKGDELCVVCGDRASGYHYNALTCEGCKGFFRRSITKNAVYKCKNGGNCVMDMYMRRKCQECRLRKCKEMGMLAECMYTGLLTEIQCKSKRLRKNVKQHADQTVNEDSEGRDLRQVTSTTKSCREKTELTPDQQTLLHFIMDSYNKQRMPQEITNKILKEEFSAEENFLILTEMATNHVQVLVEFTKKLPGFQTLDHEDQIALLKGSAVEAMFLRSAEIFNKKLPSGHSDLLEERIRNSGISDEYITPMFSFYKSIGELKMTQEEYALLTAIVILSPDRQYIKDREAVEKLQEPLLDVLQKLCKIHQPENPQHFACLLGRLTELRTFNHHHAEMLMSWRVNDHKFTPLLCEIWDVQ
# Method in brief: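 Beta-lactamase reporter under UAS control in GeneBLAzer FXR HEK 293T cells (5000/well) measured with LiveBLAzer FRET substrate after 2 h at room temperature. Compound exposure lasted 16 h at 37C.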
# [4] = qHTS assay to identify small molecule antagonists of the constitutive androstane receptor (CAR) signaling pathway - cell viability counter screen (AID 1224837); also: nearly all actives have a fitted effect of over 45% in size; also: potency is read from the fitted curve at half-maximal effect
# Method in brief: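 Multiplexed cytotoxicity read-out for the CAR antagonist screen: double-stable HepG2-CYP2B6-hCAR cells co-treated with 50 nM CITCO (final) and compound over 15 concentrations, incubated 23 hr, then assessed by CellTiter-Fluor fluorescence.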
# [5] = qHTS assay to identify small molecule antagonists of the estrogen related receptor (ERR) signaling pathway from Tox21 library (AID 1224848); also: nearly all actives have a fitted effect of over 50% in size; also: potency is read from the fitted curve at half-maximal effect
# Method in brief: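 Antagonist-mode screen of the Tox21 10K library in an NTP-provided ERR reporter cell line; 18 h compound exposure at 37 C, luminescence measured with ONE-Glo.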
# [6] = biological target: Androgen receptor (Homo sapiens) (UniProt P10275); assay: qHTS assay to identify small molecule agonists of the androgen receptor (AR) signaling pathway (AID 743036; active = well fitted activation curve with a large enough effect in the signal ratio in the repeat runs, with a control signal flat, not every such curve was filed as active; inconclusive = weak or mixed curves, or effect the other way; inactive = no such curve, though single readings can be large or run the other way; the % refers to the signal ratio); settings: HEK293 AR-UAS-bla GripTite, beta-lactamase FRET ratio, 16 h; activation: at 62.4 µM (top of the series) unless noted
# UniProt P10275, sequence (P10275 whole entry, looked up): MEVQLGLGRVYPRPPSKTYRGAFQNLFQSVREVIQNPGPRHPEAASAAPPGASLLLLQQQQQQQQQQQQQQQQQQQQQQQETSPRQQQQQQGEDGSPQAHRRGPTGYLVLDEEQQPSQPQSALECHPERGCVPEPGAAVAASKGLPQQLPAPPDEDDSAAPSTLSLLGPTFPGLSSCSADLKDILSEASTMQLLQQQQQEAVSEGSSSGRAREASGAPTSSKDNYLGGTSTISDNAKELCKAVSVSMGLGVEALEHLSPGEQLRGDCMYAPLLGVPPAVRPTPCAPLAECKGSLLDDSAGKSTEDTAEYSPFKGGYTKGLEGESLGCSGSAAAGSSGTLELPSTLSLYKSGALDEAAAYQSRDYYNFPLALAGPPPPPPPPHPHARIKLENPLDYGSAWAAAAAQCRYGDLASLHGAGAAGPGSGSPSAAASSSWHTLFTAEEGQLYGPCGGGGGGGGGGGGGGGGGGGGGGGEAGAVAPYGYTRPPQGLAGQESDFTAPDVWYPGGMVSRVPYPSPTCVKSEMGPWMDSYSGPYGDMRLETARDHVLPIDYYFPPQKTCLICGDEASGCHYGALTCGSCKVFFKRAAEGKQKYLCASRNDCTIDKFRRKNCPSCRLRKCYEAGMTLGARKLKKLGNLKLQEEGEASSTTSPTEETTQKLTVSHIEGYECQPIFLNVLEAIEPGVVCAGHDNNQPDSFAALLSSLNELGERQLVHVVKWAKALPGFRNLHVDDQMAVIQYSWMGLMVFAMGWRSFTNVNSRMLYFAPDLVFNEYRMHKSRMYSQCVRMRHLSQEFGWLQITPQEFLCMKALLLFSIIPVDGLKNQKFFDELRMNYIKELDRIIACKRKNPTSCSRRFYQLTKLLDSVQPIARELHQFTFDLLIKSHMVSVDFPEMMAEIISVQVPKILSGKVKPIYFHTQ
# Method in brief: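 Reporter line: GeneBLAzer AR-UAS-bla-GripTite (HEK293). Steps: plate cells, 4 h rest, add compounds, 16 h at 37C, add LiveBLAzer B/G substrate, 2 h at RT, read fluorescence.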
# [7] = biological target: Glucocorticoid receptor (Homo sapiens) (UniProt P04150); assay: qHTS assay to identify small molecule agonists of the glucocorticoid receptor (GR) signaling pathway (AID 720691; active = well fitted activation curve with a large enough effect in the signal ratio in the repeat runs, not every such curve was filed as active; inconclusive = weak or mixed curves, or effect the other way; inactive = no such curve, though single readings can be large or run the other way; the % refers to the signal ratio); settings: GR-bla HeLa, beta-lactamase reporter ratio, 18 h; activation: at 62.4 µM (top of the series) unless noted
# UniProt P04150, sequence (P04150 whole entry, looked up): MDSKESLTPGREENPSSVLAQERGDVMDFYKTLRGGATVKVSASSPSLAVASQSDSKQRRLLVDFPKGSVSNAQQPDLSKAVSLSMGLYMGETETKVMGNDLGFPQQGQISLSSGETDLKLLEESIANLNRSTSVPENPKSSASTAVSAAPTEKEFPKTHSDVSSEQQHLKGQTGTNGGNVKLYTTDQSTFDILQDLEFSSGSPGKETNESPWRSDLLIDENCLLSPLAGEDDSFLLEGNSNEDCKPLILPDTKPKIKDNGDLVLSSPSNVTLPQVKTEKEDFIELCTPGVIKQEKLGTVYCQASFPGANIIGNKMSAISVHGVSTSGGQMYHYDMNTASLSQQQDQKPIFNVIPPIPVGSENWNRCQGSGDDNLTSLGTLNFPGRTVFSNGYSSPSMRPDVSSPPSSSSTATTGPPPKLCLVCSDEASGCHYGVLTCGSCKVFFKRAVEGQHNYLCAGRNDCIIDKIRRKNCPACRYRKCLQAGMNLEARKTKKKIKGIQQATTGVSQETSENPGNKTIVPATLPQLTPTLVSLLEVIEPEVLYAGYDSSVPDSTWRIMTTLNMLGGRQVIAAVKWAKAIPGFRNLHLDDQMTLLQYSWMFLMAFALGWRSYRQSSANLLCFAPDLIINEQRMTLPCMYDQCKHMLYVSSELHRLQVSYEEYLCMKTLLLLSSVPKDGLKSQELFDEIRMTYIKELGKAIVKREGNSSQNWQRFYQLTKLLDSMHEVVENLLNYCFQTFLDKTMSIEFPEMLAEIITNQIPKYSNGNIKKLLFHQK
# Method in brief: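 Agonist mode in a HeLa line carrying a GRE-controlled beta-lactamase reporter. Compounds act for 18 h at 37 C before a 2 h room-temperature FRET substrate step and fluorescence reading.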
# [8] = biological target: Estrogen receptor (Homo sapiens) (UniProt P03372); assay: qHTS assay to identify small molecule agonists of the estrogen receptor alpha (ER-alpha) signaling pathway (AID 743075; calls by dose curve;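 also: HEK293 GripTite cells with ER-alpha and UAS-driven beta-lactamase reporter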); settings: HEK293 ER-alpha-UAS-bla, beta-lactamase FRET ratio, 18 h; activation: at 70.1 µM (top of the series) unless noted
# [9] = qHTS RealTime-Glo MT Cell Viability Assay in HEK293 cells - 0 hour (AID 1224880); also: top concentration of the series differs between compounds; nearly all actives have a fitted effect of over 45% in size
# Method in brief: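 Nonlytic bioluminescent viability monitoring. HEK293 at 600 cells/well with reagent; 5 h settle; compound transfer by pintool; plates held at 37 C and read at set time points.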
# [10] = A CellTox Green Cytotoxicity Assay to monitor cytotoxicity in HepG2 cells - 16 hour (AID 1224876); also: nearly all actives have a fitted effect of over 45% in size
# Method in brief: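 Real-time, homogeneous cytotoxicity readout: dead-cell DNA staining by CellTox Green in HepG2 monolayers, fluorescence measured at timed intervals up to 40 h of continuous compound exposure.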
# [11] = qHTS assay for small molecule activators of the heat shock response signaling pathway (AID 743210; active = well fitted activation curve with a large enough effect in the signal ratio in the repeat runs, with a control signal flat, not every such curve was filed as active; inconclusive = weak or mixed curves; the % refers to the signal ratio;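 also: HeLa cells with beta-lactamase reporter driven by heat shock elements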); settings: HeLa HSE-bla reporter, beta-lactamase ratio, 5 h; activation: at 62.6 µM (top of the series) unless noted
# Method in brief: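 HeLa HSE-bla cells, overnight plating; cpd in DMSO 5 h, 37 C; LiveBLAzer B/G FRET substrate 2.5 h RT; fluorescence intensity read.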
# [12] = A CellTox Green Cytotoxicity Assay to monitor cytotoxicity in HEK293 cells - 24 hour (AID 1224875); also: nearly all actives have a fitted effect of over 45% in size; also: potency is read from the fitted curve at half-maximal effect
# Method in brief: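 Cytotoxicity was tracked continuously in HEK293 cells by a DNA-binding dye excluded from viable cells. Compounds were transferred in DMSO 5 h after seeding; fluorescence was recorded at intervals up to 40 h.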
# [13] = qHTS assay to identify small molecule antagonists of the androgen receptor (AR) signaling pathway using the MDA cell line in the presence of 0.5 nM R1881 - cell viability counter screen (AID 1259242); also: nearly all actives have a fitted effect of over 45% in size
# Method in brief: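 Cytotoxicity toward MDA-kb2 cells is measured by CellTiter-Fluor live-cell protease fluorescence after 16 hr compound exposure at 37C in the presence of 0.5 nM R1881 stimulator.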
# [14] = qHTS assay for small molecule activators of the heat shock response signaling pathway - cell viability counter screen (AID 743209); settings: HSE-bla HeLa viability, CellTiter-Glo luminescence, 5 h; activity change, negative = cytotoxicity: at 62.6 µM (top of the series); also: nearly all actives have a fitted effect of over 50% in size; also: potency is read from the fitted curve at half-maximal effect
# Method in brief: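 First, HSE-bla HeLa cells were seeded at 1500 cells/well and kept overnight at 37 C. Next, compounds were pinned in and incubated 5 h. After the FRET substrate step, CellTiter-Glo was added and luminescence read 30 min later.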
# [15] = biological target: Vitamin D3 receptor (Homo sapiens) (UniProt P11473); assay: qHTS assay to identify small molecule agonists of the vitamin D receptor (VDR) signaling pathway (AID 743222; calls by dose curve); settings: HEK293T VDR-UAS-bla, beta-lactamase FRET ratio, 16 h; activation: at 63.5 µM (top of the series) unless noted
# UniProt P11473, sequence (P11473 whole entry, looked up): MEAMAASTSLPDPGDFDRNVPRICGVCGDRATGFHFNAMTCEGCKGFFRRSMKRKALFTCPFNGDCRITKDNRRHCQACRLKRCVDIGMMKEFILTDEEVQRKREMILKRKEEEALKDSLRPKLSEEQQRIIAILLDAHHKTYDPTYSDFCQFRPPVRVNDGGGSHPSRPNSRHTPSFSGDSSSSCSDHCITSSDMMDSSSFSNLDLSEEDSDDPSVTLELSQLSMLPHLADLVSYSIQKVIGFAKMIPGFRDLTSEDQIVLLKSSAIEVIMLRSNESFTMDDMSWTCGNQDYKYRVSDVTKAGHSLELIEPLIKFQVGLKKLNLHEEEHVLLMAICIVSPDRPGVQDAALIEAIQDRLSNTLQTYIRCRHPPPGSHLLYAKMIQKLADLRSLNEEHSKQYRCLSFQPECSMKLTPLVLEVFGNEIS
# Method in brief: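 Quantitative HTS agonist-mode screen: compounds in DMSO were pin-transferred onto VDR-bla cells and incubated 16 h at 37C, 5% CO2. Reporter activity was detected with LiveBLAzer B/G FRET substrate after 2 h at room temperature.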
# [16] = biological target: Voltage-gated inwardly rectifying potassium channel KCNH2 (Homo sapiens) (UniProt Q12809); assay: Human Ether-a-go-go-Related Gene (hERG) channel small molecule antagonists: fluorescence cell-based qHTS assay (AID 1671200); also: nearly all actives have a fitted effect of over 50% in size; also: potency is read from the fitted curve at half-maximal effect
# UniProt Q12809, sequence (Q12809 whole entry, looked up): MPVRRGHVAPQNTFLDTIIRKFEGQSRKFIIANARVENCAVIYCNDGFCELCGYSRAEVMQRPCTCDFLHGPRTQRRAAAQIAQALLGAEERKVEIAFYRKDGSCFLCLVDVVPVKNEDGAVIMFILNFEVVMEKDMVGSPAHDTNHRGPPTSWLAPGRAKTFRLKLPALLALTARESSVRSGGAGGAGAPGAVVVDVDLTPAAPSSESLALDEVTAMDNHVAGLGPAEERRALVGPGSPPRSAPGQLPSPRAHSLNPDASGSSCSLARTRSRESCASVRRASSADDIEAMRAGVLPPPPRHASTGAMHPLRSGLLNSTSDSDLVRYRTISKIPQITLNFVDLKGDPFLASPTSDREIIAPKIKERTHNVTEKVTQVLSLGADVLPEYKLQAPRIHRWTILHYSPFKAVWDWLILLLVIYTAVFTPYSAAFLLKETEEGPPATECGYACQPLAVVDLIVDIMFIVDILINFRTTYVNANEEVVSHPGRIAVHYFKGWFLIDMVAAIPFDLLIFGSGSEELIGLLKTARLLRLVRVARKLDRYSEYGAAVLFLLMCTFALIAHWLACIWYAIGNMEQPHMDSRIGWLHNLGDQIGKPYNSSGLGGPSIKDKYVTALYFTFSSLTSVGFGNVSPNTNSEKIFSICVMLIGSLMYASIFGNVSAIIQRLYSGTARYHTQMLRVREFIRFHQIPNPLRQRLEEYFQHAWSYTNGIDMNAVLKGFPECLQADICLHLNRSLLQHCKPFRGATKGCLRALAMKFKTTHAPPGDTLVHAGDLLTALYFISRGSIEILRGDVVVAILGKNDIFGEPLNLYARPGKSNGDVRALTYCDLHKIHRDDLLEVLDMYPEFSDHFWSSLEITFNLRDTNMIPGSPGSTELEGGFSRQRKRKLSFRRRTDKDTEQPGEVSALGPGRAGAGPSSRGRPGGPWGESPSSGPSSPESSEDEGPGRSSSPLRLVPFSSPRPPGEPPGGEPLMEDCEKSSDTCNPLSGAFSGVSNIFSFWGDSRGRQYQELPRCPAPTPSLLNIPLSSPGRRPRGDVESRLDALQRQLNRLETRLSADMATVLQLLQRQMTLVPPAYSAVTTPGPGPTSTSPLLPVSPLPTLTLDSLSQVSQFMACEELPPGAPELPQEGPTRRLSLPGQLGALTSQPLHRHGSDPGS
# Method in brief: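 Quantitative HTS in hERG-U2OS cells: thallium entry through the channel reports activity, read as continuous 480/540 nm fluorescence over 2 min after stimulus addition.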
# [17] = qHTS RealTime-Glo MT Cell Viability Assay in HepG2 cells - 16 hour (AID 1224885); also: nearly all actives have a fitted effect of over 50% in size; also: potency is read from the fitted curve at half-maximal effect
# Method in brief: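 HepG2 cells were seeded at 600 cells/well together with NanoLuc luciferase and a cell-permeant prosubstrate, preincubated 5 h at 37 C/5% CO2, then pin-dosed with compounds in DMSO. Nonlytic luminescence from viable cells was read at each time point.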
# [18] = qHTS assay to identify small molecule agonists of the estrogen related receptor signaling pathway with the pleiotropic PPARgamma coactivator (PGC) from Tox21 10K library (AID 1224842); also: nearly all actives have a fitted effect of over 15% in size
# Method in brief: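 Luminescence from One-Glo (30 min, room temperature) measured after PGC/ERR cells had 18 h at 37 C with pinned compound (23 nL in DMSO). Cells had been seeded at 2,000 per well and pre-incubated 6 h.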
# [19] = qHTS assay to identify aromatase inhibitors - cell viability counter screen (AID 743084); settings: MCF-7 aro ERE viability, CellTiter-Fluor, 24 h; activity change, negative = cytotoxicity: at 70.3 µM (top of the series);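 also: cells stimulated with testosterone during compound exposure; nearly all actives have a fitted effect of over 55% in size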; also: potency is read from the fitted curve at half-maximal effect
# Tags tell the direction and shape of the fitted curve.
structure (smiles),measurement,setting,value
O=C(O)C1C(C(=O)O)C2(Cl)C(Cl)=C(Cl)C1(Cl)C2(Cl)Cl (stereo not drawn),Potency,[1],inactive
CC[C@@]1(O)C(=O)OCc2c1cc1n(c2=O)Cc2cc3ccccc3nc2-1,Potency,[2],inconclusive: 0.0942 µM [inhibitor]
CCCCCl,Potency,[3],inactive
same,Potency,[4],inactive
same,Potency,[5],inactive
O=C(Cl)/C=C/C(=O)Cl,Potency,[6],inactive
c1cc[n+]2c(c1)-c1cccc[n+]1CC2,Potency,[4],"inconclusive: 29.8 µM [cytotoxic, partial curve]"
same,Potency,[1],active: 26.6 µM
N#Cc1c(Cl)cccc1Cl,Potency,[7],inactive
same,Potency,[8],inactive
same,Potency,[9],inactive
S=C=S,Potency,[10],inactive
OCCSCSCCO,Potency,[11],inactive
CNC(C)(C)Cc1ccccc1,Potency,[12],inactive
COc1ccc(CN2CCNCC2)c(OC)c1OC,Potency,[5],inactive
CCC1C(=O)OCC1Cc1cncn1C (stereo not drawn),Potency,[5],inactive
CCCCCCCCSC(=O)Oc1cc(Cl)nnc1-c1ccccc1,Potency,[9],inactive
Clc1nc(Cl)nc(Nc2ccccc2Cl)n1,Potency,[8],inactive
same,Potency,[13],inactive
O=NN(CCO)CCO,Potency,[6],inactive
same,Potency,[14],"inconclusive: 0.171 µM [rising, full curve, poor fit]"
same,Potency,[15],inactive
CCCN(CCC)C(=O)Cc1c(-c2ccc(Cl)cc2)nc2ccc(Cl)cn12,Potency,[13],inactive
same,Potency,[16],"inconclusive: 16.9 µM [inhibitor, partial curve, poor fit]"
COP(=S)(OC)Oc1ccc(S(N)(=O)=O)cc1,Potency,[9],inactive
same,Potency,[17],"inconclusive: 26.8 µM [cytotoxic, single point]"
CC(N)C(=O)OC(C)(C)Cc1ccc(Cl)cc1 (stereo not drawn),Potency,[18],inactive
C1CS1,Potency,[11],inactive
Clc1cccc(N2CCNCC2)c1,Potency,[8],inactive
O=S(=O)(c1ccccc1)c1ccccc1,activation,[3],inconclusive: 7.27%
ClC1(Cl)C2(Cl)C3(Cl)C4(Cl)C(Cl)(Cl)C5(Cl)C3(Cl)C1(Cl)C5(Cl)C24Cl (stereo not drawn),activation,[6],inconclusive: 7.98%
same,Potency,[18],inactive
BrCC1CO1 (stereo not drawn),Potency,[12],inactive
NC(=O)CS(=O)C(c1ccccc1)c1ccccc1 (stereo not drawn),Potency,[19],"inconclusive: 0.531 µM [rising, full curve, poor fit]"
Clc1ccc(Oc2ccccc2)cc1,Potency,[12],"inconclusive: 61.6 µM [activator, single point]"
same,Potency,[16],"inconclusive: 54.9 µM [inhibitor, single point]"
CC(C)(C)NC[C@H](O)c1ccc(O)cc1Cl,Potency,[3],inactive
Cc1coc2c1CCC(C)C2 (stereo not drawn),Potency,[19],inactive
CCCCC(=O)Cl,Potency,[7],inactive
COC(=O)c1ccccc1S(=O)(=O)NC(=O)N(C)c1nc(C)nc(OC)n1,Potency,[14],inactive
same,Potency,[12],inactive
CC(O)CCl (stereo not drawn),Potency,[19],inactive
same,Potency,[15],inactive
CN(C)C(=O)Nc1cccc(OC(=O)NC(C)(C)C)c1,Potency,[7],inactive
same,Potency,[5],inconclusive: 68.6 µM [inhibitor]
same,Potency,[17],inactive
CC(C)c1ccc(O)cc1,Potency,[15],inactive
same,Potency,[9],inactive
CNCC(=O)c1ccc(O)c(O)c1,activation,[11],inconclusive: -1.66%
same,Potency,[10],inactive
Nc1c(Br)cc(Br)c2c1C(=O)c1ccccc1C2=O,Potency,[14],inactive
N#CC1(N=NC2(C#N)CCCCC2)CCCCC1,activation,[15],inconclusive: 13.6%
CCN[C@@H](C)Cc1ccccc1,Potency,[13],inactive
CCC1(c2ccccc2)C(=O)N(COC)C(=O)N(COC)C1=O,Potency,[6],inactive
same,Potency,[14],"inconclusive: 0.015 µM [cytotoxic, full curve, poor fit]"
CCC(C)n1c(=O)[nH]c(C)c(Br)c1=O (stereo not drawn),Potency,[8],inactive
same,Potency,[5],inactive
same,Potency,[16],inactive
